# Assay results taken from the supplement of paper PMC8821664.
# Where a name gives a salt, the structure may show the parent alone. Some of the results follow. Repeats are few or missing, and single values can be far off.
# System: Beas-2B AQP5-HiBiT reporter cells
# Assay: AQP5-HiBiT luminescence relative to vehicle (ratio to vehicle); higher = higher AQP5-HiBiT protein abundance
# Settings: 10 µM; 18 h
# 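Note: monoclonal Beas-2B line stably carrying CMV promoter-driven AQP5-HiBiT, 5,000 cells per well in 384-well plates, lytic HiBiT plus LgBiT NanoLuc luminescence, FDA-approved drug library screen.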
row,Structure (SMILES),AQP5-HiBiT luminescence
1,CCCN(CCC)CCc1cccc2c1CC(=O)N2 [Ropinirole hydrochloride],1.13
2,CN(C)CCOC(c1ccc(Cl)cc1)c1ccccn1 (centres undefined) [Carbinoxamine Maleate Salt],1.52
3,N[C@@H](CC(=O)N1CCn2c(nnc2C(F)(F)F)C1)Cc1cc(F)c(F)cc1F [Sitagliptin],1.01
4,C/C(=C\C(=O)OCCCCCCCCC(=O)O)C[C@@H]1OC[C@H](C[C@@H]2O[C@H]2[C@@H](C)[C@H](C)O)[C@@H](O)[C@H]1O [Mupirocin],1.22
5,CN(C)CC[C@@H](c1ccc(Cl)cc1)c1ccccn1 [Dexchlorpheniramine Maleate],0.66
6,O=C1C(O)=C([C@H]2CC[C@H](c3ccc(Cl)cc3)CC2)C(=O)c2ccccc21 [Atovaquone],0.661
7,COc1cc(Cc2cnc(N)nc2N)cc(OC)c1OC [Trimethoprim],1.1
8,CN(C)CC/C=C1/c2ccccc2COc2ccc(CC(=O)O)cc21 [Olopatadine hydrochloride],1.1
9,CC(C(=O)O)c1cccc(C(=O)c2ccccc2)c1 (centres undefined) [Ketoprofen],1.06
10,COC(=O)[C@H]1[C@H]2C[C@@H]3c4[nH]c5cc(OC)ccc5c4CCN3C[C@H]2C[C@@H](OC(=O)c2cc(OC)c(OC)c(OC)c2)[C@@H]1OC [Reserpine],1.91
11,O=NO [Sodium nitrite],1.04
12,C=CC[C@@H]1/C=C(\C)C[C@H](C)C[C@H](OC)[C@H]2O[C@@](O)(C(=O)C(=O)N3CCCC[C@H]3C(=O)O[C@H](/C(C)=C/[C@@H]3CC[C@@H](O)[C@H](OC)C3)[C@H](C)[C@@H](O)CC1=O)[C@H](C)C[C@@H]2OC [Tacrolimus (FK506)],0.857
13,CC(C)Cn1cnc2c(N)nc3ccccc3c21 [Imiquimod],0.786
14,CCC(CC)[C@H](NC(C)=O)[C@@H]1[C@H](O)[C@@H](C(=O)O)C[C@H]1NC(=N)N [Peramivir Trihydrate],0.695
15,NCC[C@H](O)C(=O)N[C@@H]1C[C@H](N)[C@@H](O[C@H]2O[C@H](CN)[C@@H](O)[C@H](O)[C@H]2O)[C@H](O)[C@H]1O[C@H]1O[C@H](CO)[C@@H](O)[C@H](N)[C@H]1O [Amikacin Sulfate Salt],0.986
16,CCOc1nc2cccc(C(=O)O)c2n1Cc1ccc(-c2ccccc2-c2nnn[nH]2)cc1 [Candesartan],0.988
17,CNCCC(Oc1ccc(C(F)(F)F)cc1)c1ccccc1 (centres undefined) [Fluoxetine],0.748
18,CC1=C(C(=O)O)N2C(=O)[C@@H](NC(=O)[C@H](N)c3ccc(O)cc3)[C@H]2SC1 [Cefadroxil],0.75
19,c1ccc(CC2=NCCN2)cc1 [Tolazoline hydrochloride],0.895
20,C=C1c2cccc(O)c2C(=O)C2=C(O)[C@]3(O)C(=O)C(C(N)=O)=C(O)[C@@H](N(C)C)[C@@H]3[C@@H](O)[C@H]12 [Methacycline hydrochloride],0.608
21,CCc1cc2c(cc1CC)CC(NC[C@H](O)c1ccc(O)c3[nH]c(=O)ccc13)C2 [Indacaterol],0.829
22,C#C[C@]1(OC(C)=O)CC[C@H]2[C@@H]3CCC4=C[C@@H](OC(C)=O)CC[C@@H]4[C@H]3CC[C@@]21C [Ethynodiol diacetate],0.74
23,CN1CCCC(n2nc(Cc3ccc(Cl)cc3)c3ccccc3c2=O)CC1 (centres undefined) [Azelastine],1.37
24,C=C(c1ccc(C(=O)O)cc1)c1cc2c(cc1C)C(C)(C)CCC2(C)C [Bexarotene],1.32
25,COCCCOc1cc(C[C@@H](C[C@H](N)[C@@H](O)C[C@H](C(=O)NCC(C)(C)C(N)=O)C(C)C)C(C)C)ccc1OC [Aliskiren hemifumarate],0.93
26,CN(C)CC/C=C1/c2ccccc2Sc2ccc(Cl)cc21 [Chlorprothixene],1.19
27,CC[C@H](C)C(=O)O[C@H]1C[C@@H](C)C=C2C=C[C@H](C)[C@H](CC[C@@H]3C[C@@H](O)CC(=O)O3)[C@H]21 [Lovastatin],0.969
28,C[C@@H]1C[C@H]2[C@@H]3CCC4=CC(=O)C=C[C@]4(C)[C@@]3(F)[C@@H](O)C[C@]2(C)[C@@]1(O)C(=O)CO [Dexamethasone (DHAP)],0.787
29,CCn1cc(C(=O)O)c(=O)c2cc(F)c(N3CCNCC3)nc21 [Enoxacin Sesquihydrate],0.83
